Some of the results follow.
What was measured:
Test in all cases: glycan array binding signal (z-score within array); higher = stronger binding
Settings in all cases: glycan notation: IUPAC condensed, linker removed
[1] = target: GlcNAc(b1-3)Gal(b1-3)GalNAc
Procedure, shortened: (§1)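 Glycan array binding is given as a within-array Z-score, which can be read as non-binding when negative. The arrays, 3228 of them, came from the Consortium for Functional Glycomics database and were retained only where the protein sequence was available. Z-scores were averaged across arrays of the same protein sequence at different concentrations or buffers and across linkers.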

GlcNAc(b1-3)Gal(b1-4)Glc = target: GlcNAc(b1-3)Gal(b1-4)Glc
Procedure, shortened: as §1

[2] = target: GlcNAc(b1-3)Gal(b1-4)GlcNAc
Procedure, shortened: as §1

[3] = target: GlcNAc(b1-3)Gal(b1-4)GlcNAc(b1-3)Gal(b1-4)GlcNAc
Procedure, shortened: as §1

GlcNAc(b1-3)GalNAc = target: GlcNAc(b1-3)GalNAc
Procedure, shortened: as §1

GlcNAc(b1-3)Man = target: GlcNAc(b1-3)Man
Procedure, shortened: as §1

[4] = target: GlcNAc(b1-3)[GlcNAc(b1-4)][GlcNAc(b1-6)]GlcNAc
Procedure, shortened: as §1

[5] = target: GlcNAc(b1-3)[GlcNAc(b1-6)]Gal(b1-4)GlcNAc
Procedure, shortened: as §1

[6] = target: GlcNAc(b1-3)[GlcNAc(b1-6)]GalNAc
Procedure, shortened: as §1

[7] = target: GlcNAc(b1-4)Gal(b1-4)GlcNAc
Procedure, shortened: as §1

GlcNAc(b1-4)GlcNAc = target: GlcNAc(b1-4)GlcNAc
Procedure, shortened: as §1

[8] = target: GlcNAc(b1-4)GlcNAc(b1-4)GlcNAc
Procedure, shortened: as §1

[9] = target: GlcNAc(b1-4)GlcNAc(b1-4)GlcNAc(b1-4)GlcNAc(b1-4)GlcNAc
Procedure, shortened: as §1

[10] = target: GlcNAc(b1-4)GlcNAc(b1-4)GlcNAc(b1-4)GlcNAc(b1-4)GlcNAc(b1-4)GlcNAc
Procedure, shortened: as §1

[11] = target: GlcNAc(b1-4)[GlcNAc(b1-6)]GalNAc
Procedure, shortened: as §1

[12] = target: GlcNAc(b1-6)Gal(b1-4)GlcNAc
Procedure, shortened: as §1

GlcNAc(b1-6)GalNAc = target: GlcNAc(b1-6)GalNAc
Procedure, shortened: as §1

GlcNAc3Prop(b1-4)GlcNAc = target: GlcNAc3Prop(b1-4)GlcNAc
Procedure, shortened: as §1

[13] = target: GlcNAc6S(b1-3)Gal(b1-4)GlcNAc
Procedure, shortened: as §1

Kdn(a2-3)Gal(b1-3)GalNAc = target: Kdn(a2-3)Gal(b1-3)GalNAc
Procedure, shortened: as §1

Kdn(a2-3)Gal(b1-3)GlcNAc = target: Kdn(a2-3)Gal(b1-3)GlcNAc
Procedure, shortened: as §1

Kdn(a2-3)Gal(b1-4)Glc = target: Kdn(a2-3)Gal(b1-4)Glc
Procedure, shortened: as §1

Kdn(a2-3)Gal(b1-4)GlcNAc = target: Kdn(a2-3)Gal(b1-4)GlcNAc
Procedure, shortened: as §1

[14] = target: Kdn(a2-3)Gal(b1-4)[Fuc(a1-3)]GlcNAc
Procedure, shortened: as §1

Kdn(a2-6)Gal(b1-4)GlcNAc = target: Kdn(a2-6)Gal(b1-4)GlcNAc
Procedure, shortened: as §1

[15] = target: Man(a1-2)Man(a1-2)Man(a1-3)Man
Procedure, shortened: as §1

[16] = target: Man(a1-2)Man(a1-2)Man(a1-6)[Man(a1-3)]Man
Procedure, shortened: as §1

Man(a1-2)Man(a1-3)Man = target: Man(a1-2)Man(a1-3)Man
Procedure, shortened: as §1

[17] = target: Man(a1-2)Man(a1-3)[Man(a1-2)Man(a1-6)]Man
Procedure, shortened: as §1

[18] = target: Man(a1-2)Man(a1-3)[Man(a1-2)Man(a1-6)]Man(a1-6)[Man(a1-2)Man(a1-2)Man(a1-3)]Man
Procedure, shortened: as §1

[19] = target: Man(a1-2)Man(a1-3)[Man(a1-2)Man(a1-6)]Man(a1-6)[Man(a1-2)Man(a1-2)Man(a1-3)]Man(b1-4)GlcNAc(b1-4)GlcNAc
Procedure, shortened: as §1

[20] = target: Man(a1-2)Man(a1-3)[Man(a1-6)]Man(a1-6)[Man(a1-2)Man(a1-3)]Man(b1-4)GlcNAc(b1-4)GlcNAc
Procedure, shortened: as §1

[21] = target: Man(a1-2)Man(a1-6)[Man(a1-3)]Man(a1-6)[Man(a1-2)Man(a1-2)Man(a1-3)]Man
Procedure, shortened: as §1

[22] = target: Man(a1-2)Man(a1-6)[Man(a1-3)]Man(a1-6)[Man(a1-2)Man(a1-2)Man(a1-3)]Man(b1-4)GlcNAc(b1-4)GlcNAc
Procedure, shortened: as §1

Man(a1-3)[Man(a1-6)]Man = target: Man(a1-3)[Man(a1-6)]Man
Procedure, shortened: as §1

[23] = target: Man(a1-3)[Man(a1-6)]Man(a1-6)[Man(a1-2)Man(a1-3)]Man(b1-4)GlcNAc(b1-4)GlcNAc
Procedure, shortened: as §1

[24] = target: Man(a1-3)[Man(a1-6)]Man(a1-6)[Man(a1-3)]Man
Procedure, shortened: as §1

[25] = target: Man(a1-3)[Man(a1-6)]Man(a1-6)[Man(a1-3)]Man(b1-4)GlcNAc(b1-4)GlcNAc
Procedure, shortened: as §1

[26] = target: Man(a1-3)[Man(a1-6)]Man(b1-4)GlcNAc(b1-4)GlcNAc
Procedure, shortened: as §1

Man(a1-6)Man = target: Man(a1-6)Man
Procedure, shortened: as §1

Man(b1-4)GlcNAc = target: Man(b1-4)GlcNAc
Procedure, shortened: as §1

Neu5Ac(a2-3)Gal = target: Neu5Ac(a2-3)Gal
Procedure, shortened: as §1

[27] = target: Neu5Ac(a2-3)Gal(b1-3)GalNAc
Procedure, shortened: as §1

[28] = target: Neu5Ac(a2-3)Gal(b1-3)GalNAc(b1-3)Gal(a1-4)Gal(b1-4)Glc
Procedure, shortened: as §1

[29] = target: Neu5Ac(a2-3)Gal(b1-3)GalNAc(b1-4)[Neu5Ac(a2-3)]Gal(b1-4)Glc
Procedure, shortened: as §1

B1: ASAL (Allium sativum), P83886 (protein)
chain: MGRTTSSPKAMMRIATVAAILTILASTCMARNVLTNGEGLYAGQSLDVEQYKFIMQDDCNLVLYEYSTPIWASNTGVTGKNGCRAVMQRDGNFVVYDVNGRPVWASNSVRGNGNYILVLQKDRNVVIYGSDIWSTGTYRRSVGGAVVMAMNGTVDGGSVIGPVVVNQNVTAAIRKVGTGAA
glycan array binding signal (z-score) [1]: -0.049 | glycan array binding signal (z-score) (GlcNAc(b1-3)Gal(b1-4)Glc): -0.255 | glycan array binding signal (z-score) [2]: -0.285 | glycan array binding signal (z-score) [3]: -0.304 | glycan array binding signal (z-score) (GlcNAc(b1-3)GalNAc): -0.273 | glycan array binding signal (z-score) (GlcNAc(b1-3)Man): -0.3 | glycan array binding signal (z-score) [4]: -0.249 | glycan array binding signal (z-score) [5]: -0.276 | glycan array binding signal (z-score) [6]: -0.247 | glycan array binding signal (z-score) [7]: -0.233 | glycan array binding signal (z-score) (GlcNAc(b1-4)GlcNAc): -0.252 | glycan array binding signal (z-score) [8]: -0.262 | glycan array binding signal (z-score) [9]: -0.217 | glycan array binding signal (z-score) [10]: -0.219 | glycan array binding signal (z-score) [11]: -0.247 | glycan array binding signal (z-score) [12]: -0.31 | glycan array binding signal (z-score) (GlcNAc(b1-6)GalNAc): -0.283 | glycan array binding signal (z-score) (GlcNAc3Prop(b1-4)GlcNAc): -0.162 | glycan array binding signal (z-score) [13]: -0.065 | glycan array binding signal (z-score) (Kdn(a2-3)Gal(b1-3)GalNAc): -0.296 | glycan array binding signal (z-score) (Kdn(a2-3)Gal(b1-3)GlcNAc): -0.258 | glycan array binding signal (z-score) (Kdn(a2-3)Gal(b1-4)Glc): -0.25 | glycan array binding signal (z-score) (Kdn(a2-3)Gal(b1-4)GlcNAc): -0.273 | glycan array binding signal (z-score) [14]: -0.201 | glycan array binding signal (z-score) (Kdn(a2-6)Gal(b1-4)GlcNAc): -0.255 | glycan array binding signal (z-score) [15]: 2.05 | glycan array binding signal (z-score) [16]: 2.53 | glycan array binding signal (z-score) (Man(a1-2)Man(a1-3)Man): -0.312 | glycan array binding signal (z-score) [17]: 0.693 | glycan array binding signal (z-score) [18]: 4.09 | glycan array binding signal (z-score) [19]: 0.295 | glycan array binding signal (z-score) [20]: 1.68 | glycan array binding signal (z-score) [21]: 3.13 | glycan array binding signal (z-score) [22]: 3.67 | glycan array binding signal (z-score) (Man(a1-3)[Man(a1-6)]Man): -0.229 | glycan array binding signal (z-score) [23]: 1.47 | glycan array binding signal (z-score) [24]: -0.135 | glycan array binding signal (z-score) [25]: 0.276 | glycan array binding signal (z-score) [26]: 1.42 | glycan array binding signal (z-score) (Man(a1-6)Man): -0.26 | glycan array binding signal (z-score) (Man(b1-4)GlcNAc): -0.236 | glycan array binding signal (z-score) (Neu5Ac(a2-3)Gal): -0.234 | glycan array binding signal (z-score) [27]: -0.257 | glycan array binding signal (z-score) [28]: -0.272 | glycan array binding signal (z-score) [29]: -0.279

Reference: the supplement of paper PMC8728848
